The list shows a part of the results.
test system: S. aureus RN4220; assay: growth inhibition call (relative growth <= 0.2); conditions: 50 µM

Growth inhibition call, inactive:
C[C@H]1CCCCO[C@H](CN(C)Cc2ccccc2)[C@@H](C)CN([C@@H](C)CO)C(=O)c2cc(NS(=O)(=O)c3ccc(Cl)cc3)ccc2O1, CN(C)C(=O)c1ccc(-c2cccc(-c3nc(C(=O)NC4CCC4)cc4c3[C@@H](CCO)N([S@](=O)C(C)(C)C)C4)c2)cc1, CCOC(=O)CC(=O)c1ccn(C)n1, C[C@@H]1CN([C@@H](C)CO)C(=O)Cc2cc(NC(=O)Nc3ccc(C(F)(F)F)cc3)ccc2O[C@H]1CN(C)Cc1ccc(Oc2ccccc2)cc1, Cc1cc(Cn2c(=O)n(Cc3cnc(C)s3)c(=O)c3cc(S(=O)(=O)NC4(C)CC4)ccc32)n(C)n1, COc1cccc(S(=O)(=O)N2C[C@@H](O)COC[C@H]3O[C@@H](CC(=O)N4CCN(c5ccccc5)CC4)CC[C@@H]32)c1, Cc1ccc(S(=O)(=O)Nc2ccc3c(c2)C(=O)N([C@H](C)CO)C[C@@H](C)[C@@H](CN(C)Cc2ccc(Cl)c(Cl)c2)OCCCC[C@H](C)O3)cc1, CCCN(C)C[C@@H]1OCCCC[C@H](C)Oc2ccc(NC(=O)Nc3ccc(F)cc3)cc2C(=O)N([C@H](C)CO)C[C@@H]1C, C[C@@H]1CN([C@H](C)CO)C(=O)Cc2cc(NC(=O)Nc3ccc(C(F)(F)F)cc3)ccc2O[C@H]1CN(C)C(=O)Nc1ccc(F)cc1, COc1ccc(S(=O)(=O)N(C)C[C@H]2OCCCC[C@@H](C)Oc3ccc(NC(=O)C4CCCCC4)cc3C(=O)N([C@H](C)CO)C[C@H]2C)cc1, O=C(C[C@@H]1C[C@@H]2c3cc(NS(=O)(=O)c4ccc(F)cc4)ccc3O[C@@H]2[C@H](CO)O1)NCC(F)(F)F, COc1ccc2c3c(n(c2c1)C)[C@H](CO)N(C[C@]13CN(CC2CCOCC2)C1)C(=O)Cc1ccccn1, NCC[C@H]1CC[C@@H](NC(=O)C2CCCC2)[C@@H](CO)O1, C[C@@H]1CN([C@H](C)CO)C(=O)c2cc(NC(=O)Nc3ccccc3)ccc2O[C@@H](C)CCCCO[C@H]1CN(C)Cc1ccc2c(c1)OCO2, C[C@@H]1CCCCO[C@@H](CN(C)Cc2ccc3c(c2)OCO3)[C@@H](C)CN([C@H](C)CO)C(=O)c2cc(NC(=O)Nc3ccccc3)ccc2O1, O=C(C[C@H]1C[C@H]2c3cc(NC(=O)Nc4ccc(C(F)(F)F)cc4)ccc3O[C@H]2[C@H](CO)O1)NCCc1ccccc1, C[C@@H]1CCCCO[C@@H](CN(C)S(=O)(=O)c2ccccc2)[C@H](C)CN([C@H](C)CO)C(=O)c2cc(NC(=O)c3ccccc3)ccc2O1, C[C@H]1CN([C@@H](C)CO)C(=O)Cc2cc(NC(=O)Nc3ccc(C(F)(F)F)cc3)ccc2O[C@@H]1CN(C)C(=O)NC1CCCCC1, C[C@H](CO)N1C[C@H](C)[C@H](CN(C)C(=O)C2CCCCC2)OCCCC[C@H](C)Oc2ccc(NC(=O)c3ccccc3)cc2C1=O, CC/C(=C\C(=N\O)C(N)=O)[C@@H](C)[N+](=O)[O-], CN1C(=O)c2cc(NC(=O)C3CCCC3)ccc2OC[C@H]2O[C@H](CC(=O)NCCc3ccncc3)CC[C@@H]21, O=C(C=Cc1ccc(O)cc1)c1ccccc1O, Cc1nc(CO)co1, C[C@@H]1CN([C@H](C)CO)C(=O)c2cccc(NS(=O)(=O)c3ccc(F)cc3)c2O[C@H]1CN(C)S(=O)(=O)c1cn(C)cn1, C[C@@H]1CN([C@@H](C)CO)C(=O)c2cc(/C=C/c3ccccc3)cnc2O[C@H]1CN(C)C(=O)CN1CCOCC1, COc1ccc(S(=O)(=O)N(C)C[C@H]2Oc3c(cccc3N(C)C)C(=O)N([C@@H](C)CO)C[C@H]2C)cc1, C[C@@H]1CCCCO[C@@H](CN(C)C(=O)CCC(F)(F)F)[C@H](C)CN([C@@H](C)CO)C(=O)c2cc(NC(=O)Nc3ccccc3)ccc2O1, C[C@@H]1CN([C@@H](C)CO)C(=O)c2cc(NC(=O)Nc3ccc4c(c3)OCO4)ccc2O[C@@H](C)CCCCO[C@H]1CN(C)Cc1ccc(C(F)(F)F)cc1, CNCc1ccncc1, C[C@@H]1CN([C@@H](C)CO)C(=O)c2cc(NC(=O)Cc3ccccc3)ccc2O[C@@H]1CN(C)C(=O)Nc1cccc2ccccc12
